Laboratory results as given in a compilation of properties of binary mixtures (doi:10.1016/j.molliq.2022.120052).
Some of these densities may be calculated back from excess volumes.

Experiment: xn = mol fraction of the nth substance listed
Conditions: 100 kPa

C[n+]1ccn(CCCC#N)c1.O=S(=O)([O-])C(F)(F)F + O=C1CCCO1
mass density [kg/m3]
Conditions | x1 = 0.1003 | x1 = 0.2001 | x1 = 0.3003 | x1 = 0.3999 | x1 = 0.4999 | x1 = 0.6002 | x1 = 0.7001 | x1 = 0.8002 | x1 = 0.9004 | x1 = 1
288.15 K | 1216 | 1274.7 | – | 1352.9 | 1379.8 | – | 1416.7 | 1429.9 | 1440.7 | –
293.15 K | 1211.8 | 1270.7 | 1315.3 | 1349 | 1375.6 | 1396.6 | 1412.9 | 1426.2 | – | 1445
298.15 K | 1207.8 | 1266.9 | 1311.4 | 1344.9 | 1371.9 | 1392.7 | 1409.2 | 1422.4 | – | 1440.9
303.15 K | 1203.8 | 1263 | 1307.6 | 1341.2 | – | 1388.9 | 1405.6 | – | – | 1436.7
308.15 K | 1199.5 | 1259 | 1303.6 | 1337.3 | 1364.3 | – | 1401.8 | 1415.1 | 1425.6 | –
313.15 K | 1195.5 | 1255.3 | – | 1333.6 | 1360.5 | – | – | 1411.4 | 1421.8 | 1428.4
318.15 K | 1191.3 | 1251.4 | 1296 | 1329.6 | 1356.7 | 1377.7 | 1394.5 | – | – | –
323.15 K | 1187.2 | 1247.3 | – | 1325.7 | 1352.9 | 1374 | 1390.7 | – | – | –
328.15 K | 1183 | 1243.4 | 1288.1 | 1321.9 | 1349 | 1370.2 | 1387.1 | 1400.5 | 1410.4 | 1415.9
333.15 K | 1178.9 | 1239.5 | 1284.1 | – | 1345.2 | 1366.5 | 1383.4 | 1396.8 | 1406.6 | 1411.7
338.15 K | 1174.7 | 1235.5 | – | 1314.3 | 1341.5 | 1362.8 | 1379.7 | 1393.1 | 1402.8 | –
343.15 K | 1171 | 1232 | 1276.4 | 1310.5 | 1337.8 | 1359.1 | – | 1389.6 | 1399 | 1403.4

O=C1CCCO1 + C[n+]1ccn(CCCC#N)c1.O=S(=O)([O-])C(F)(F)F
x2 = 0
Conditions | mass density [kg/m3]
293.15 K | 1128.7
298.15 K | 1123.9
308.15 K | 1114
313.15 K | 1109.2
318.15 K | 1104.5
328.15 K | 1094.8
333.15 K | 1090
338.15 K | 1085.2
343.15 K | 1080.6
